# From the supplement of paper PMC10126150
# Values marked as one replicate rest on one cluster of the flow cell; about a third of the high ones do not repeat.
# Tested on: ATP
# Assay: switch fluorescence ratio, 500 uM ATP over buffer (Cy3 cluster intensity, sum of 5 cycles each) (fold (ratio)); higher = stronger signal-on switching upon ATP binding
# Conditions: aptamer strand: ATP DNA aptamer (quencher-CACCTGGGGGAGTATTGCGGAGGAAGG + anchor), 100 nM annealed; ATP concentration: 500 uM; one replicate
# Method in brief: (§1)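 After annealing to 100 nM quencher-labelled ATP aptamer, Cy3-labelled switching-strand clusters on a modified Illumina MiSeq flow-cell were imaged in selection buffer. A second image followed after 15 min with 500 uM ATP at 22 °C, and five such buffer/ATP cycles were done, each separated by NaOH stripping and re-annealing. The fluorescence ratio, averaged per switch-domain sequence, is summed target-cycle over summed buffer-cycle Cy3 intensity per cluster, with clusters outside 100-1000 RFU excluded.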
# 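Further: ATP exposure 15 min at 22 °C before imaging.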
row,Sequence,switch fluorescence ratio
1,TCGTCGGCAGCGTCAGATGTGTATAAGAGACAGTTTTTTTTTTTTTTTTTTTTTTTTTAATC,0.996

# Tested on: ATP
# Assay: switch fluorescence ratio, 500 uM ATP over buffer (Cy3 cluster intensity, sum of 5 cycles each) (fold (ratio)); higher = stronger signal-on switching upon ATP binding; sequences stand for … in TCGTCGGCAGCGTCAGATGTGTATAAGAGACAGTTTTTTTTTTTTTTTTTTTTTTTTT…TC
# Conditions: aptamer strand: ATP DNA aptamer (quencher-CACCTGGGGGAGTATTGCGGAGGAAGG + anchor), 100 nM annealed; ATP concentration: 500 uM; one replicate
# Method in brief: as §1
row,Sequence,switch fluorescence ratio
1,GCCCCACTCT,0.978
2,AGAGAAAAAT,0.986
3,CCAATTCCGG,1.02
4,AGAACGCATG,1.02
5,ATGGAAAAAC,1.05
6,GCTACCGCA,1.12
7,GATGTGATGG,0.969
8,GGTAGGAAGG,1.05
9,TTGGCAATGA,2.8
10,TTTCGAGCAG,0.975
11,TGACATAGGC,1
12,CTTGAGAAAT,1.06
13,TTTAGACGAA,0.962
14,TTTAATTCCA,1.03
15,CCAGTGCGTA,1.04
16,GTTGAGCGCG,1.04
17,TTGGGAATAT,1.02
18,AACGTTGTCG,1.04
19,CCTACGATGG,2.39
20,TTGGAGTCAG,1.63
21,GGGTTTTCAC,0.957
22,CAAGAAGTTA,1.02
23,GCATTTACGG,1.1
24,TCCCGGCGAA,1.07

row,Sequence,switch fluorescence ratio
1,TCGTGCAGC,1.03
2,CGTATCCGGA,1.08
3,ATTGCGATAT,1.09
4,ATTTCGCCGT,1.04
5,CCTAGAGGTC,0.992
6,GCCACGGTGT,1.66
7,GTGTTTTT,0.99
8,ATCGTCCGCA,4.82
9,GCCTGTATAA,0.977
10,CATCCCCTTG,1.08
11,CTTGTCCAC,0.98
12,GACAATAGAC,3.98
13,GAGGGTAATT,1.05
14,AATGTCCTAG,1.02
15,TGATTACCAA,1.36
16,AGATTGGCGA,1
17,ACTGTTGGT,0.979
18,GCGAGTACTA,1.08
19,ACAAGTGCT,0.997
20,AAAGCTTCGT,1.33
21,AAGACGTTGG,1.02
22,CGGATAATGC,1.19
23,TATGATACTA,1
24,ACCATGTGCA,1.06

row,Sequence,switch fluorescence ratio
1,CGAGATGCGC,0.993
2,ATGCGACATG,0.995
3,TCACATCTTA,1.07
4,CGCGCGTGG,1.01
5,TTTCTAAAAG,1
6,AACCAGTAT,1.01
7,GGCTAAAAAA,1.03
8,TTCCCGTAGG,1.02
9,GCGAAGGTGC,1.5
10,GTTCTAGTTC,0.983
11,TCAAATTCCG,1.02
12,TAACGTGCTC,1.01
13,GGCTTTAGGG,1.03
14,GCGGACGGAG,1.01
15,AAACCTTGAG,1.09
16,CAGGTGGGCT,1.34
17,TGCGTATGTC,1
18,GTAGAGGGGC,0.971
19,TGCGATTGGG,0.992
20,TTATGAGGT,0.992
21,CGGAGTTAGA,1.04
22,GCGAACCCGA,1.03
23,AAGTTATGCA,0.989
24,TCCTAATGG,1.02

row,Sequence,switch fluorescence ratio
1,CTTGCTGGTA,0.979
2,TGACATATAC,1.53
3,GCGTTAAGTG,1.03
4,TTGAAGTACG,1.13
5,CTTTGACGTT,0.969
6,CAGGGCCGTG,1.02
7,TGGGTACCCA,1.15
8,TAGGAGGTGA,1.01
9,GACTAGGGTT,0.993
10,ACGGAATGAA,1.1
11,GCTCGTCTCG,1.04
12,CGTTTCGGA,0.978
13,TCTTTCCCAG,1.09
14,TGCTCTGGGT,1.04
15,CAGCTCGAC,1.47
16,GATAGGCAG,1
17,CACCTAAGCG,1.03
18,CAGGCTCCCG,1.01
19,ATTTTGGTGC,1.01
20,TCCAGGTTTC,0.958
21,GTACTAAGTA,1.06
22,CATCCAGTCG,1.1
23,AATATGCGTG,0.956
24,TGGTCCTTAA,1.01

row,Sequence,switch fluorescence ratio
1,GTTGCTGATG,0.976
2,CTAGGATGT,0.943
3,TTCGTCCACC,1.01
4,TCCTGTCTCA,1.03
5,CGGTAATATA,1.03
6,TGTCAGAAAG,1.23
7,ATGCCTTCGG,0.983
8,TACATAATGG,1.02
9,CGGTGCTGG,0.963
10,TATAAATAAA,1.02
11,CATCTTGAC,1.01
12,GGGACAGT,1.01
13,GACTCCTACG,1.07
14,CGGGATTGCG,0.98
15,TTGAAGCCCA,1.15
16,CAACGGGACC,1.27
17,TGCGAACACG,1.01
18,CCGACTGAAT,3.34
19,CAACAGGCGG,1.02
20,TTGGGACATT,1
21,GACATCTAAA,1.03
22,GATTTGTGTA,0.969
23,CTTATATTCG,0.943
24,ATTAGTAAAT,0.999

row,Sequence,switch fluorescence ratio
1,ATCAGGCGA,1.04
2,TTAAGGTTGA,1.03
3,GGCGGCTTC,1.01
4,TTTTAGATGT,0.974
5,AGGCGTTTTT,0.99
6,CGTAGGTAG,0.989
7,GTAGTCGGGA,1.01
8,GTCGATGACA,1
9,TACTATAATT,1.03
10,TGGTCTAAGC,1.03
11,ACTGTTACTT,1.22
12,CGTGGAATGT,1.01
13,CTGCCAAGAG,1.12
14,TATGGTCTGG,1
15,GACTTTAGCT,1.02
16,TGTTGGATGT,0.981
17,CCGTGCCTAT,1.01
18,TAATATACAT,1.04
19,CTGTATTTTG,1.06
20,TGGTACTTAA,1.01
21,ACTGGCAGCC,0.992
22,GGGTGTACAT,0.994
23,ACATCATCC,1
24,GTGAATGTGG,0.961

row,Sequence,switch fluorescence ratio
1,TAATTAATCG,0.977
2,TTACCTTTTA,0.988
3,CATGACATGT,0.99
4,GCCACGCAAC,1.18
5,CACCCCGGAA,2.08
6,TCTGGCTGAC,1.05
7,CATTACATAC,1.35
8,GTTGGACCCC,1.01
9,ATGTTGGAGT,0.986
10,AGCGGGAGCG,1.02
11,CTCAACCGCT,1.38
12,ATTCTGGAGG,1.01
13,ATCACAGTGC,1.14
14,TCTAACGTTT,1.01
15,CCATGCTGAC,1.77
16,GCGACTTCCG,0.997
17,AGCTTTACTT,1.01
18,TTACGTCGTC,1.11
19,CATGCTACCA,1.07
20,CGTTTCAGTA,1.05
21,TAAGTCGTCG,1.01
22,TGGCAGGGTT,0.999
